Laboratory results taken from PubChem BioAssay AID686971 (National Center for Advancing Translational Sciences (NCATS), 2013).
The campaign covered roughly 360,000 compounds. About 7,500 (2.1%) were called active. Inconclusive results, whose numbers are uncertain, are shown with a selection of clear calls. The call rests on the fitted dose curve; in most records, active means well fitted cell-killing curve with a large enough effect; inconclusive means small, poorly fitted or top-dose-only effect, or effect the other way, or another doubt; inactive means no such curve, though single readings can be large or run the other way. No potency is given beside an inconclusive call; the fits are too rough.

assay: qHTS for induction of synthetic lethality in tumor cells producing 2HG: qHTS for the HT-1080-IDH1KD cell line; details: HT-1080 IDH1 knockdown viability, ATP luminescence, 48 h; activity, negative = toxicity: at 46.1 µM (top of the series) unless noted;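 on activity, negative = toxicity: 0% = DMSO wells and -100% = cell-free medium wells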
Summary of the method: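 In this qHTS, HT-1080 cells depleted of IDH1 are exposed for 48 h at 37 °C to compound titrations. Toxicity is scored from CellTiter-Glo luminescence, with DMSO as full viability and medium alone as none.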
Potency means the concentration at half of the fitted maximal effect; tags describe the fitted curve by direction and shape.

| Structure (SMILES) | Potency | activity, negative = toxicity |
| --- | --- | --- |
| CCCCN(CC)Cc1c(C)[nH]c2c(ccc3ccccc32)c1=O | inconclusive [cytotoxic, single point] |  |
| CC(C)N1CCC1(C)C(=O)Nc1ccccc1OC(F)F (stereo unspecified) | inconclusive [cytotoxic, partial curve, poor fit] |  |
| CCCc1ccc(C(=O)O/N=C(\N)c2ccccn2)cc1 | inconclusive [cytotoxic, single point] |  |
| O=c1c2cn(Cc3ccccc3)c3ccccc3c-2nn1Cc1ccc(F)cc1Cl |  | inactive: 14% |
| CC1CC2(C)Oc3ccccc3CC2C(C)C1CNCCCN(C)C (stereo unspecified) | active: 6.51 µM |  |
| Cc1coc2c1c(C)cc1oc(=O)c(CC(=O)NCCCCCC(=O)O)c(C)c12 |  | inactive: -10.5% |
| Cc1cccc(N(CC(=O)NC2CCCCC2)C(=O)c2ccc(C)s2)c1 | inconclusive [cytotoxic, single point] |  |
| Nc1cc2c3c(cccc3c1)C(=O)N(CCN1CCCC1)C2=O | inconclusive [cytotoxic, single point] |  |
| O=C(NNc1ccc(C(F)(F)F)cc1[N+](=O)[O-])c1ccc(NS(=O)(=O)c2ccc(F)cc2)cc1 | active: 20.6 µM |  |
| CCc1ccc(C(=O)CN(C#N)c2nc(C)cc(C)n2)cc1 | inconclusive [cytotoxic, single point] |  |
| CCOC(=O)C1=C(COC(=O)/C=C/c2ccc(OC)cc2)NC(=O)NC1C (stereo unspecified) | inconclusive [cytotoxic, partial curve] |  |
| c1cncc(-c2nc(NCC3COc4ccccc4O3)c3ccccc3n2)c1 (stereo unspecified) | inconclusive [cytotoxic, single point] |  |
| Cc1ccc(NC(=O)CC2SC(=O)N(c3ccccc3)C2=O)cc1 (stereo unspecified) |  | inactive: 0.1% |
| CC(C)(C)NC(=O)C(=O)NNC(=O)c1cccc(F)c1 | inconclusive [cytotoxic, full curve] |  |
| c1ccc2cc3c(NCCN4CCOCC4)ccnc3cc2c1 | inconclusive [cytotoxic, single point] |  |
| O=C(CSc1nc2c([nH]c3ccccc32)c(=O)n1-c1cccc(Cl)c1)N1CCOCC1 | inconclusive [cytotoxic, single point] |  |
| COc1ccc(OC)c(C(=O)c2coc3ccc(O)cc23)c1 | inconclusive [cytotoxic, single point] |  |
| CCCCN(CC)S(=O)(=O)c1ccc(C(=O)Nc2nnc(CSC)o2)cc1 | inconclusive [cytotoxic, partial curve] |  |
| CCCCCCCC(=O)NC(Nc1ccc(S(N)(=O)=O)cc1)C(Cl)(Cl)Cl (stereo unspecified) | inconclusive [cytotoxic, single point] |  |
| COc1ccc(C2(c3ccc(O)cc3O)CC(c3ccccc3Cl)NC(=S)N2)cc1 (stereo unspecified) | inconclusive [cytotoxic, single point] |  |
| Cc1ccc(-n2c(C)cc3c2CCCC3=O)cc1 | inconclusive [cytotoxic, single point] |  |
| CN1CC2=Cc3ccccc3OC23Oc2ccccc2C=C3C1 | inconclusive [cytotoxic, single point] |  |
| CCOCCCNC(=S)NCCNc1nc2c(C)cccc2cc1C#N |  | inactive: 0% |
| COc1ccccc1/C=C/C(=O)Nc1ccc2c(c1)OCCO2 | inconclusive [cytotoxic, single point] |  |

| Structure (SMILES) | Potency | activity, negative = toxicity |
| --- | --- | --- |
| CC(C)c1ccc(N(C(=O)c2snc(C(N)=O)c2N)C(C(=O)NCC2CCCO2)c2ccc(N(C)C)cc2)cc1 (stereo unspecified) | inconclusive [cytotoxic, single point] |  |
| Cc1nn(Cc2c(F)c(F)c(F)c(F)c2F)c(C)c1NC(=O)c1ccc(COc2ccc(F)cc2)o1 | inconclusive [cytotoxic, single point] |  |
| O=[N+]([O-])c1cc(F)c2cccnc2c1O | inconclusive [cytotoxic, partial curve] |  |
| CC#CC[N+](C)(C)CCCCCCCC |  | inactive: -9.98% |
| Cc1nn(C)cc1CNCc1ccc(OCC(O)CN(C)Cc2ccccc2)cc1 (stereo unspecified) |  | inconclusive: -31.7% [cytotoxic] |
| CCCCN(CC)c1nc(-c2ccncc2)nc2ccccc12 | inconclusive [cytotoxic, partial curve] |  |
| Cc1ccnc(NCc2ccc(Cl)cc2)c1 | inconclusive [cytotoxic, single point] |  |
| O=C(CC12CC3CC(CC(C3)C1)C2)Nc1cccc2ncccc12 | inconclusive [cytotoxic, single point] |  |
| COC(=O)[C@]12CCCCC=C1N(Cc1ccc(Cl)cc1Cl)C(=O)[C@H](CC(=O)NCc1ccc(OC)c(OC)c1)C2 | active: 13 µM |  |
| O=[N+]([O-])c1cc(Cl)c(O)c2ncccc12 | inconclusive [cytotoxic, partial curve] |  |
| COc1ccc(C(=O)NC(=S)NNC(=O)c2cnccn2)cc1 | active: 2.91 µM |  |
| COc1cccc(N2CCN(C(=O)c3[nH]c(C)c(C(C)=O)c3C)CC2)c1 | active: 5.62 µM |  |
| O=C1CC(NS(=O)(=O)c2cccnc2)CN1c1ccccc1 (stereo unspecified) |  | inactive: 1.61% |
| COc1ccc(CCC(C)N2CCC(CO)(Cc3ccccc3)CC2)cc1 (stereo unspecified) |  | inactive: -18% |
| Cc1cccc(N=C2CCCC2C(=O)Nc2cccc(C)c2C)c1C (stereo unspecified) |  | inactive: 7.44% |
| O=C(NC12CC3CC(CC(C3)C1)C2)c1cc([N+](=O)[O-])ccc1N1CCOCC1 | inconclusive [cytotoxic, single point] |  |
| CN(CCOc1ccccc1)CC(=O)Nc1ccc(Br)cc1F |  | inconclusive: -31.2% [cytotoxic] |
| CC(=O)Nc1cncc(-c2ccccc2CO)n1 | inconclusive [rising, partial curve, poor fit] |  |
| Cc1nc2c(C)cccc2cc1C(=O)N/N=C/c1ccc(O)cc1 | inconclusive [cytotoxic, single point] |  |
| Cc1[nH]cnc1C(=O)N/N=C/c1c(Cl)cccc1Cl | inconclusive [cytotoxic, partial curve] |  |
| Cc1cc(C)n(-c2nc(NCC(C)O)c3c4c(sc3n2)COC(C)(C)C4)n1 (stereo unspecified) | inconclusive [cytotoxic, single point] |  |
| Cc1ccc(Nc2cc(C)nc3ccccc23)c(C)c1 | inconclusive [cytotoxic, partial curve] |  |
| CCCCC[C@@H](C)N1C[C@@H](COCc2ccccc2)Oc2cc(N3CC[C@@H](O)C3)ccc2S1(=O)=O | inconclusive [cytotoxic, single point] |  |
| COc1ccc([N+](=O)[O-])c(S(=O)(=O)c2ccc(Cl)cc2)n1 | active: 8.2 µM |  |

| Structure (SMILES) | Potency | activity, negative = toxicity |
| --- | --- | --- |
| Nc1nc(COC(=O)C2CC(=O)N(CCc3ccccc3)C2)nc(Nc2ccccc2)n1 (stereo unspecified) |  | inactive: 9.32% |
| CCN(/N=C/c1ccc(N(C)C)cc1)c1nc2ccccc2[nH]1 | inconclusive [cytotoxic, single point] |  |
| Fc1cccc(Cl)c1C1SCc2nc3ccccc3n21 (stereo unspecified) | inconclusive [cytotoxic, single point] |  |
| O=C(C1CCC(=O)N1Cc1ccccc1Cl)N1CCN(c2cccc(Cl)c2)CC1 (stereo unspecified) | inconclusive [cytotoxic, single point] |  |
| Cc1c(Nc2ncccc2C(=O)O)cccc1C(F)(F)F |  | inactive: 11.8% |
| COc1ccc(NS(=O)(=O)c2ccc(N3CCCC3)c(N)c2)cc1 | inconclusive [cytotoxic, partial curve] |  |
| CCCN(CCC)C(=O)CC(c1ccccc1)c1cc(Br)ccc1O (stereo unspecified) | inconclusive [cytotoxic, single point] |  |
| Cc1ccc(S(=O)(=O)N2CCCCC2)cc1NC(=O)Cc1cccs1 |  | inactive: 4.09% |
| O=C(CN1CCN(CCN2C(=O)c3cccc4cccc(c34)C2=O)CC1)c1ccc(F)cc1 | inconclusive [cytotoxic, single point] |  |
| CCCOc1ccc(-c2nc(N3CCN(C)CC3)c3ccccc3n2)cc1 | inconclusive [cytotoxic, single point] |  |
| O=[N+]([O-])c1ccc(O)c(NC(=S)Nc2ccccc2)c1 |  | inconclusive: -0.882% |
| COC(=O)C1=CN(c2ccc(OC)cc2)C(N)=C(C#N)C1c1cccc2ccccc12 (stereo unspecified) | inconclusive [cytotoxic, full curve, poor fit] |  |
| Cc1ccc(NC(=O)Cc2c(Cl)cccc2Cl)cc1S(=O)(=O)N(C)C | inconclusive [cytotoxic, single point] |  |
| CCOC(=O)NC(=S)Nc1c(C)n(C)n(-c2ccccc2)c1=O |  | inactive: 7.72% |
| Cc1c(C(=O)N(CCC#N)c2ccccc2)sc2nc3n(c(=O)c12)CCCC3 |  | inactive: 4.88% |
| CCCC(O)(CCC)C(=O)NN(C(=O)CCl)c1ccccc1 | inconclusive [cytotoxic, single point] |  |
| CCN(Cc1ccccc1)C(=O)c1ccccc1C |  | inactive: 1.6% |
| CC(Sc1nnc(Nc2ccccc2)s1)C(=O)Nc1nc(-c2ccccc2)cs1 (stereo unspecified) | inconclusive [cytotoxic, partial curve] |  |
| CC1(C(=O)Nc2cccc(C(F)(F)F)c2)Cc2c(-c3cccc(C(F)(F)F)c3)ccnc2O1 (stereo unspecified) | inconclusive [cytotoxic, single point] |  |
| CC(C)Nc1nc(NCCOc2ccccc2)c2sccc2n1 | active: 23.1 µM |  |
| C(=N\NC1=Nc2cccc3cccc1c23)/c1cccnc1 |  | inactive: -13.3% |
| COc1ccc(NC(=S)NNC(=O)CNc2ccc(Cl)cc2)cc1 |  | inactive: -5.54% |
| COC(=O)C1=CN(c2ccc(OC)cc2OC)C(N)=C(C#N)C1c1cccc([N+](=O)[O-])c1 (stereo unspecified) | inconclusive [cytotoxic, full curve] |  |
